Source: PubChem BioAssay AID2675 (National Center for Advancing Translational Sciences (NCATS), 2010)
The campaign covered roughly 280,000 compounds. About 100 (0.036%) were called active. The inconclusive results got no clear call from the source; some entries with a clear call stand among them for comparison. The call rests on the fitted dose curve; in most records, active means well fitted inhibition curve with a large enough effect in the signal ratio, with a control signal flat (not every such curve was filed as active); inconclusive means small, poorly fitted or top-dose-only effect, or effect the other way, or a change in a side signal; inactive means no such curve, though single readings can be large or run the other way; the % refers to the signal ratio. A potency beside an inconclusive call is a rough fit, not a confirmed value. “Side channel” marks fits to a control or component signal instead of the main read-out.

molecular target: Muscleblind-like protein 1 (Homo sapiens) (UniProt Q9NR56); assay: qHTS Assay for Inhibitors of MBNL1-poly(CUG) RNA binding; settings: TR-FRET MBNL1-His/biotin-(CUG)12 binding, 665/545 ratio; series mostly up to 57.5 µM
Chain of UniProt Q9NR56 (Q9NR56 whole entry, looked up): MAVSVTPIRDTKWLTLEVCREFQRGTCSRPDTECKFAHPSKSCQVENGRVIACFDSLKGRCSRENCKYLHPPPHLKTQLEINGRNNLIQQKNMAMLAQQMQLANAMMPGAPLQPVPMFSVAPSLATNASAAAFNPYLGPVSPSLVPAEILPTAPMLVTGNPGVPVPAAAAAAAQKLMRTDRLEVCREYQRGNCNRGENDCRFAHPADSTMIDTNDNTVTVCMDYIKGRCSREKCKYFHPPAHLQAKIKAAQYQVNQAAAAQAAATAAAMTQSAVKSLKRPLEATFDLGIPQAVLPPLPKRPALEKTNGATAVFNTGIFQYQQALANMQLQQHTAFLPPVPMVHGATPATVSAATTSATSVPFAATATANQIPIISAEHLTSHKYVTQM
In short: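 Compound titration spanned 92 nM–58 uM against the MBNL1-His/biotin-(CUG)12 complex. After 60 min at room temperature with 5 nM streptavidin-XL665 and 0.055 ng/ul terbium anti-His, ratiometric 665/545 nm emission (Ex 340 nm) normalized to controls.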
Potency means the concentration at half of the fitted maximal effect; tags describe the fitted curve by direction and shape or compound fluorescence and quenching.

Structure (SMILES) | Potency
O=C(CN1CCCCC1)NNC(=O)c1cccc(Br)c1 | inactive
CCCC(=O)Nc1cccc(NC(=O)c2ccc([N+](=O)[O-])cc2Cl)c1 | inconclusive: 10 µM [quencher, side channel, partial curve]
CCN(CC)S(=O)(=O)c1ccc2c3c(cccc13)C(=O)N2 | inconclusive: 17.8 µM [quencher, side channel, partial curve]
CC(C)N1CCC(N2CCN(Cc3ccc(-c4ccccc4Cl)o3)CC2CCO)CC1 (stereo unspecified) | inconclusive: 20 µM [inhibitor, single point]
NC(=O)Cn1nnc(-c2ccc(CN3CCCCC3)cc2)n1 | inactive
COC(=O)CCN(C(=O)c1ccc(N2CCCCC2)c([N+](=O)[O-])c1)c1ccccn1 | inconclusive: 28.2 µM [quencher, single point]
Cc1cccc(NC(=O)C2CCN(S(=O)(=O)c3cccc4nsnc34)CC2)n1 | inconclusive: 11.2 µM [quencher, side channel, partial curve]
O=C(Nc1ccc(F)cc1)c1cccc(N2C(=O)C3C4C=CC(C5CC45)C3C2=O)c1 (stereo unspecified) | inactive
O=C(O/N=C(/c1ccccc1)c1ccncc1)c1ccccc1[N+](=O)[O-] | inconclusive: 10 µM [quencher, side channel, partial curve]
CSc1nc2nc(C(F)(F)F)cc(-c3ccccc3)n2n1 | inconclusive: 7.08 µM [quencher, side channel, partial curve]
Cc1ccc(S(=O)(=O)N2CCC(=O)N(CCOC(=O)Nc3ccc(C)c(C)c3)CC2)cc1 | inconclusive: 0.891 µM [fluorescent, side channel, partial curve, poor fit]
O=c1n(Cc2ccccc2F)c2ccccc2n1Cc1ccccc1F | inconclusive: 0.447 µM [quencher, side channel, single point]
Cn1c(CSCc2ccc(Cl)cc2)nnc1SCC(=O)Nc1nccs1 | inconclusive: 1 µM [fluorescent, side channel, full curve, poor fit]
O=[N+]([O-])c1ccc(/C=N/NC(=S)Nc2ccccc2C(F)(F)F)o1 | inactive
O=C(Cc1ccccc1)N/N=C/C=C/c1cccc([N+](=O)[O-])c1 | inconclusive: 3.98 µM [quencher, side channel, full curve]
Cc1cc(C)nc(SCC(=O)Nc2ccccc2[N+](=O)[O-])n1 | inconclusive: 25.1 µM [quencher, side channel, partial curve]
COc1ccc2oc(=O)c(C(=O)C[n+]3cccc(C)c3)cc2c1 | inconclusive: 15.8 µM [quencher, side channel, partial curve]
CC(C)C(NS(=O)(=O)c1cccc2nsnc12)C(=O)N1CCn2c1nc1ccccc12 (stereo unspecified) | inconclusive: 15.8 µM [quencher, partial curve]
COC(=O)C1CCN(C(=O)COC(=O)Cc2c[nH]c3ccccc23)CC1 | inactive
COc1ccc2c(c1)CC/C(=C/c1ccccn1)C2=O | inactive
CC(C)(C)NC(=O)c1cc([N+](=O)[O-])ccc1N1CCCCC1 | inconclusive: 15.8 µM [quencher, side channel, partial curve]

Structure (SMILES) | Potency
COc1ccc(-c2nc(-c3ccc(O)cc3O)cs2)cc1OC | inconclusive: 20 µM [quencher, side channel, partial curve]
CCOC(=O)c1cnc2nc(NCc3ccc(OC)c(OC)c3)[nH]n2c1=O | inconclusive: 44.7 µM [fluorescent, side channel, partial curve, poor fit]
COCCn1c(SCc2nc3sc(C(=O)OC)c(C)c3c(=O)[nH]2)nc2ccccc21 | inactive
Cc1nc2ccccc2nc1N1CCCC1 | inconclusive: 0.631 µM [fluorescent, side channel, single point]
O=C(NCc1ccccn1)c1cc2c(ccc3ccccc32)oc1=O | inconclusive: 7.08 µM [quencher, side channel, partial curve]
C=CCn1c(Cc2nc3ccc(Cl)cc3[nH]2)n[nH]c1=S | inconclusive: 35.5 µM [quencher, side channel, single point]
COc1cc(OC)c2c(C)c(Cl)c(=O)oc2c1 | inactive
CCOC1=NN(c2ncc(C(F)(F)F)cc2Cl)C(=O)C1 | inactive
O=C(NNC1=NS(=O)(=O)c2ccccc21)c1ccc([N+](=O)[O-])cc1 | inconclusive: 12.6 µM [quencher, side channel, partial curve]
COc1ccc(OC)c(C2C3=C(CCCC3=O)NC3=C2C(=O)CCC3)c1 | inconclusive: 20 µM [quencher, side channel, single point]
O=C(NCC1CCCO1)c1ccc2c(=O)n(CCc3ccccc3)c(=O)[nH]c2c1 (stereo unspecified) | inactive
COc1ccc(OC)c(C(c2nnnn2C2CCCC2)N2CCc3ccccc3C2)c1 (stereo unspecified) | inconclusive: 3.55 µM [quencher, side channel, single point]
COc1ccc([N+](=O)[O-])cc1NC(=O)c1ccco1 | inconclusive: 15.8 µM [quencher, partial curve]
CC(=O)Nc1cc2c(cc1NC(=O)Cn1nc(-c3ccc4c(c3)OCCO4)ccc1=O)OCCO2 | inconclusive: 25.1 µM [quencher, side channel, partial curve]
COc1ccccc1NC(=O)c1ccc2nc(C)c(C)nc2c1 | inconclusive: 25.1 µM [quencher, side channel, single point]
CCOC(=O)c1c(NC(=O)c2cc(-c3cccc(O)c3)on2)sc(C(C)=O)c1C | inactive
O=C(CCCN1C(=O)/C(=C/c2ccccc2Cl)SC1=S)NNC(=O)c1ccncc1 | inconclusive: 17.8 µM [quencher, side channel, partial curve]
Cc1ccc(NC(=O)COC(=O)Cn2cnc3ccccc32)c([N+](=O)[O-])c1 | inconclusive: 14.1 µM [quencher, side channel, partial curve]
CC(=O)Nc1ccc(N=C(C2=C(O)c3ccccc3C2=O)c2ccccc2)cc1 | inconclusive: 10 µM [quencher, side channel, partial curve]
O=S(=O)(NCc1ccccc1)c1ccc(S(=O)(=O)N(Cc2ccccn2)C2CCCC2)cc1 | inconclusive: 39.8 µM [quencher, side channel, single point]
Cc1cc2nc(/C=C/c3cccnc3)[nH]c2cc1C | inconclusive: 10 µM [quencher, side channel, partial curve]

Structure (SMILES) | Potency
COc1ccc(C2=NN(C3=NN=C(N)Cc4ncnn43)C(O)(C(F)(F)F)C2)cc1 (stereo unspecified) | inconclusive: 28.2 µM [quencher, side channel, partial curve, poor fit]
CCOC(=O)c1ccc(N2C(=O)C(O)=C(C(C)=O)C2c2ccc(O)c(OC)c2)cc1 (stereo unspecified) | inconclusive: 28.2 µM [quencher, single point]
O=[N+]([O-])c1cccc(CNC2CCCCCC2)c1 | inactive
O=C(COc1cccnc1[N+](=O)[O-])Nc1ccc(S(=O)(=O)N2CCOCC2)cc1 | inconclusive: 15.8 µM [quencher, partial curve]
COc1ccc(C2C(C#N)=C(C)NC3=C2S(=O)(=O)c2ccccc23)cc1 (stereo unspecified) | inconclusive: 10 µM [quencher, partial curve]
O=C(N/N=C/C=C\c1ccccc1[N+](=O)[O-])c1ccco1 | inconclusive: 14.1 µM [quencher, partial curve]
O=[N+]([O-])c1ccc(CSc2nnc(-c3cnccn3)o2)cc1 | inconclusive: 15.8 µM [quencher, side channel, partial curve]
CC(=O)O/N=C/c1c(C)c(C=O)n2ccccc12 | inconclusive: 25.1 µM [quencher, side channel, partial curve]
Oc1c(C=Nc2cccnc2)sc2ccccc12 | inconclusive: 17.8 µM [quencher, side channel, partial curve]
Oc1ccc(/C=N/Nc2ccnc3cc(Cl)ccc23)cc1O | inconclusive: 28.2 µM [quencher, side channel, single point]
OCCNc1nc2ccccc2n1CCN1CCCCC1 | inconclusive: 39.8 µM [quencher, side channel, single point]
COc1ccc(OC)c(N(CC(=O)NCc2ccccc2)S(=O)(=O)c2ccc(OC)c(OC)c2)c1 | inconclusive: 39.8 µM [quencher, single point]
Cc1ccc(S(=O)(=O)CC2CSc3nnc(C)c(=O)n32)cc1 (stereo unspecified) | inactive
O=C(CSc1ccc(-c2nc3ccccc3[nH]2)cn1)Nc1ccc(S(=O)(=O)NC2CC2)cc1 | inconclusive: 35.5 µM [fluorescent, single point]
COc1ccccc1-c1cc(C(F)(F)F)nc(S(=O)(=O)CCCC(=O)N2CCOCC2)n1 | inactive
O=C(NCCc1ccc(Cl)cc1)Nc1cccc(Cl)c1 | inactive
O=C(O)c1cc2c(ccc3ccccc32)o1 | inconclusive: 39.8 µM [quencher, side channel, single point]
CCc1c(C)sc(NC(=O)c2cc(-c3ccco3)on2)c1C#N | inactive
Cc1cc(C)n(-c2cc(N3CCN(C(=O)c4ccc(C(C)(C)C)cc4)CC3)ccc2[N+](=O)[O-])n1 | inconclusive: 15.8 µM [quencher, side channel, partial curve, poor fit]
